In article PMC6451091:
This is one part of the list. The protein was read in a cell extract, so binding may be indirect.

target: PU.1 (endogenous, THP-1 nuclear extract) (UniProt P17947); assay: nuclear extract protein-binding microarray (nextPBM); conditions: 20 mM HEPES pH 7.9, 100 mM NaCl, 1 mM DTT, 0.2 mg/mL BSA, 0.02% Triton X-100, 2% milk, 0.4 mg/mL salmon testes DNA; 1 h; temperature not stated; high values mean tight binding; double strand, one strand shown; sequences stand for … in GCCTAGCAC…GTGCTAGGTCTTGATTCGCTTGACGCTGCTG

Row | Sequence | binding signal
1 | TGAGTTATGATCATGCCACT | -0.381 z-score
2 | CCGGGTTCAAGCGATTCTCC | -0.532 z-score
3 | TCTCAAAGCAGCTTGAAGCG | -0.522 z-score
4 | GGGAGATTTCAGGCACTTCC | 1.1 z-score
5 | CAAAGTTCTGTCTTCATGGA | 0.0899 z-score
6 | ACTTGTGAAGGAAATGAATC | 0.618 z-score
7 | CCAGCCTGGCCAAAGTGGTG | -0.158 z-score
8 | AGGGAGCAGCCTCCTGACTT | -0.267 z-score
9 | GAAAGGACTGCGTGAAACTA | -0.39 z-score
10 | ACAGAGTCTTGCTCTGTCGC | -0.0685 z-score
11 | TTTATGGAAATAGCGGTTTT | 0.34 z-score
12 | CAGGGCACTGCGTGAAACCC | -0.584 z-score
13 | AAAGTTTCCAAAAGCTCCTG | -0.426 z-score
14 | AGCTGGGCATCCTCCATGAT | -0.186 z-score
15 | CAACAGCGTGCAGTCTTTTT | -0.364 z-score
16 | GAGGTTGCATCTTTTAAGAG | -0.417 z-score
17 | GATCCCCAAACGGAAAGAAA | 0.246 z-score
18 | GAGTGAACTCACGTCCACAC | -0.482 z-score
19 | GCAATACTTTACACTCAACT | -0.331 z-score
20 | TTTTATTTTACAATTAAAAC | -0.689 z-score

target: T1, FLI1 (endogenous, THP-1 nuclear extract) (UniProt Q01543); assay: as above; conditions: 20 mM HEPES pH 7.9, 100 mM NaCl, 1 mM DTT, 0.2 mg/mL BSA, 0.02% Triton X-100, 2% milk, 0.4 mg/mL salmon testes DNA; 1 h; temperature not stated; high values mean tight binding; double strand, one strand shown; sequences stand for … in GCCTAGCAC…GTGCTAGGTCTTGATTCGCTTGACGCTGCTG
T1 sequence: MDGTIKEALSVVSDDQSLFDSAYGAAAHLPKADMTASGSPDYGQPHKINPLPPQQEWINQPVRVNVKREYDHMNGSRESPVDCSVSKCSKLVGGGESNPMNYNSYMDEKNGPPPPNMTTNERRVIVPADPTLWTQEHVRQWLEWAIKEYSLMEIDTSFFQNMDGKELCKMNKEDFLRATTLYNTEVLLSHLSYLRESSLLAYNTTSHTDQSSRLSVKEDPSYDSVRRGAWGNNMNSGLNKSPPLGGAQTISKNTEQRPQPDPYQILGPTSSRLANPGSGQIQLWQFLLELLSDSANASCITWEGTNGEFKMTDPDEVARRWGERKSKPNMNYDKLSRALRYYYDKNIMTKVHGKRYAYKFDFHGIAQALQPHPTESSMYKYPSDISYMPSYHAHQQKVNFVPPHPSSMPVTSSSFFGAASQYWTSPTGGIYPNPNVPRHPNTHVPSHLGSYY

Row | Sequence | binding signal
21 | TGACATTGCAAACACATGGC | -0.462 z-score
22 | AGAAGCGAGTAGGTGGGGAG | 0.237 z-score
23 | TGTATAATACAAAGCAAAAG | -0.86 z-score
24 | GTACCACATTCGAAATTGAA | -0.801 z-score
25 | CAAGGCTGACTGTGGAACCC | -0.514 z-score
26 | TCGAGCATCTCCATCTTTCT | -0.7 z-score
27 | ATGGGTTCCTTGAATTTCAG | 0.211 z-score
28 | TTTAAAGCTGCATGAAACTG | -0.404 z-score
29 | TAGATGACTGCGTGAAACTC | -0.434 z-score
30 | AGAGAGATGTGACTTGTCCA | -0.787 z-score
31 | CCAGTGCCATATAAACAATA | 0.0288 z-score
32 | GCCCTGGGTTTCACTGGCCT | -0.984 z-score
33 | TGCATTGCCTGGCCGGGTGA | -0.414 z-score
34 | CGAAAAGCTGCATGAAACCA | -0.526 z-score
35 | GTCACTCTCAGATACTGCCA | -0.777 z-score
36 | GGGAGAGGCAGGAAGGAGCC | 2.42 z-score
37 | AGCCCCAAGGCCGCTTGCCC | -1.37 z-score
38 | CTGGAGGATCCTTCTGCGCA | -0.424 z-score
39 | GAAGGAGGGAAGAGGCTGGA | 0.287 z-score
40 | GCTGCTCCCTCTTTTCTTCC | 0.392 z-score

Row | Sequence | binding signal
41 | TGAGTTATGATCATGCCACT | -0.523 z-score
42 | CCGGGTTCAAGCGATTCTCC | -0.633 z-score
43 | TCTCAAAGCAGCTTGAAGCG | -1.04 z-score
44 | GGGAGATTTCAGGCACTTCC | 3.2 z-score
45 | CAAAGTTCTGTCTTCATGGA | -0.159 z-score
46 | ACTTGTGAAGGAAATGAATC | 1.79 z-score
47 | CCAGCCTGGCCAAAGTGGTG | -1.19 z-score
48 | AGGGAGCAGCCTCCTGACTT | -1.06 z-score
49 | GAAAGGACTGCGTGAAACTA | -0.178 z-score
50 | ACAGAGTCTTGCTCTGTCGC | -0.144 z-score
51 | TTTATGGAAATAGCGGTTTT | 0.813 z-score
52 | CAGGGCACTGCGTGAAACCC | -0.877 z-score
53 | AAAGTTTCCAAAAGCTCCTG | -0.258 z-score
54 | AGCTGGGCATCCTCCATGAT | 1.45 z-score
55 | CAACAGCGTGCAGTCTTTTT | -0.499 z-score
56 | GAGGTTGCATCTTTTAAGAG | -0.479 z-score
57 | GATCCCCAAACGGAAAGAAA | 1.78 z-score
58 | GAGTGAACTCACGTCCACAC | -0.289 z-score
59 | GCAATACTTTACACTCAACT | -0.166 z-score
60 | TTTTATTTTACAATTAAAAC | -0.291 z-score
